# According to PubChem BioAssay AID1347165 (National Center for Advancing Translational Sciences (NCATS), 2019):
# About 5,700 (2.6%) of roughly 220,000 compounds were called active. The inconclusive results got no clear call from the source; some entries with a clear call stand among them for comparison. Calls follow the shape of the dose curve; as a rule, active = well fitted inhibition curve with a large enough effect; inconclusive = small, poorly fitted or top-dose-only effect; inactive = no such curve, though single readings can be large or run the other way. Potencies beside an inconclusive call are fits to weak or partial responses and may not hold up.
# Molecular target: Lysine-specific demethylase 5B (Homo sapiens) (UniProt Q9UGL1)
# Experiment: Primary screen for KDM5B Histone Demethylases FDH-coupled qHTS; also: nearly all actives have a fitted effect of over 70% in size; as to activity change, negative = inhibition: 0% is about no effect
# Conditions: FDH-coupled NADH fluorescence (FDH is formaldehyde dehydrogenase); activity change, negative = inhibition: at 57.7 µM (top of the series) unless noted
# In short: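 Compound dilutions met 200 nM (final) KDM5BΔAP for 10 min at room temperature before substrate addition. The substrate mix held 12.5 µM H3K4me3 with cofactors 25 µM α-ketoglutarate and 50 µM Fe²⁺. NADH signal gain over 30 min defined activity.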
# Potency is read from the fitted curve at half-maximal effect; tags tell the direction and shape of the fitted curve.
# Chain of UniProt Q9UGL1 (Q9UGL1 whole entry, looked up): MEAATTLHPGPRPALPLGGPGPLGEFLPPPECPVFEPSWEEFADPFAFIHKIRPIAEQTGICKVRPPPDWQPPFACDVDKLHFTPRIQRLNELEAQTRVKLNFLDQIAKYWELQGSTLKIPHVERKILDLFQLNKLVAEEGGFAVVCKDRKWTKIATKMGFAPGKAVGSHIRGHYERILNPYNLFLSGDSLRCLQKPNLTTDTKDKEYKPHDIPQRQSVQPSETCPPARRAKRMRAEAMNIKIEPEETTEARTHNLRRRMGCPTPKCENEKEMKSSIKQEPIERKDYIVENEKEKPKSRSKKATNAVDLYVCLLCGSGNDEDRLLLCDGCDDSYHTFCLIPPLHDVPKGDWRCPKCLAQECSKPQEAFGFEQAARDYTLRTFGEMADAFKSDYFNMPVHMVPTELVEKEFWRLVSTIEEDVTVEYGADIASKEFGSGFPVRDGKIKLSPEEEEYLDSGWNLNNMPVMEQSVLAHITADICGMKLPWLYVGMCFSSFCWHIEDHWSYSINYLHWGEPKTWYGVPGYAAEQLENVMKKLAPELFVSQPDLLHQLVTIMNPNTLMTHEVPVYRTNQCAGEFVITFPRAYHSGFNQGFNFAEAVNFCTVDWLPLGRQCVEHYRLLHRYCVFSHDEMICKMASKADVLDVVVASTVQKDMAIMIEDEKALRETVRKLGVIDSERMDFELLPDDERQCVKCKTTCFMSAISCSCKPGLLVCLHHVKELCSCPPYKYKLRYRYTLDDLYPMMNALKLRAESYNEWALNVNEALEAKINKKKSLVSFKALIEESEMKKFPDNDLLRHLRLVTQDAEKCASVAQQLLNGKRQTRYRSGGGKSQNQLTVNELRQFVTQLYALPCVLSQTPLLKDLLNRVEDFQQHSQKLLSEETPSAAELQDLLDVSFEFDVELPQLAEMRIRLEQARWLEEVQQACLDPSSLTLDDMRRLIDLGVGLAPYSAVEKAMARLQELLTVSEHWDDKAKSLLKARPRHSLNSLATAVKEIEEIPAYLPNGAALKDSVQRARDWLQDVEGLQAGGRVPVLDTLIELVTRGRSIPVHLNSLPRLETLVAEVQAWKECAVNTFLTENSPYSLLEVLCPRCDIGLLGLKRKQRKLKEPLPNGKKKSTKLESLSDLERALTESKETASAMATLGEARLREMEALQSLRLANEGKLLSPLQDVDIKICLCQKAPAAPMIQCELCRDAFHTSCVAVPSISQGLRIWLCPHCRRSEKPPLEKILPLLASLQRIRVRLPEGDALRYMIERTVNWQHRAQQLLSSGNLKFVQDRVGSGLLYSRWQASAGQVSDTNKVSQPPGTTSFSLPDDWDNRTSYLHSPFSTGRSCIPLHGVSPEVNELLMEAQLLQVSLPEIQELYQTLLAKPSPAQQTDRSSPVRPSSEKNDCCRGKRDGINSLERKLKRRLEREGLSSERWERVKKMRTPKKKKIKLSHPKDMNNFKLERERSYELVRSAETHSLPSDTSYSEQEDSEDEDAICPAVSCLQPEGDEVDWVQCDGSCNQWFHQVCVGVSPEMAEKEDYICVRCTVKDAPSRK
SMILES,Potency,"activity change, negative = inhibition"
CCc1ccccc1NC(=O)C1CCN(c2cnccn2)CC1,"inconclusive: 35.5 µM [inhibitor, single point]",
O=C1NCc2ccccc2CC12CCCN2Cc1cccc(OC(F)(F)F)c1 (stereo not given),"inconclusive: 50.1 µM [inhibitor, partial curve, poor fit]",
COc1ccccc1N1C(=O)C=C(Sc2nc(C)cc(C)n2)C1=O,"inconclusive: 2.51 µM [inhibitor, full curve, poor fit]",
O=C(N[C@H]1CCN2C(=O)c3ccccc3NC(=O)[C@@H]2C1)c1cccs1,"inconclusive: 31.6 µM [inhibitor, single point]",
Cc1ccc(Cl)cc1N1CCN(C(=O)CCCn2c(=O)[nH]c3ccc(Br)cc3c2=O)CC1,,inconclusive: -31.1% [inhibitor]
COCCNC(=O)c1nc(-c2ccc(Cl)cc2)c2ccccn12,active: 35.5 µM,
O=C(C1CC(=O)N(c2n[nH]c3cccc(F)c23)C1)N1CCN(c2ccc(Cl)cc2)CC1 (stereo not given),active: 22.4 µM,
O=C(CCC1CCN(C(=O)c2ccccc2)CC1)NCCCN1CCCc2ccccc21,active: 10 µM,
COc1ccc(C(CC(=O)N(C)Cc2cnc3ccccn23)c2ccccc2)cc1 (stereo not given),active: 31.6 µM,
Cc1ccc(-c2cc(C(=O)N3CCN(CC(=O)NC4CC4)CC3)c3ccccc3n2)o1,"inconclusive: 25.1 µM [inhibitor, partial curve, poor fit]",
O=S(=O)(Nc1cc(F)ccc1F)c1ccc2[nH]c3c(c2c1)CCCCC3,"inconclusive: 15.8 µM [inhibitor, partial curve, poor fit]",
Cc1ccc2oc(=O)c3cc(C(=O)N4CCN(c5ccccc5F)CC4)sc3c2c1,,inconclusive: -34% [inhibitor]
O=C(NCCCn1ccnc1)c1ccc2nc(-c3ccc(F)cc3)cn2c1,active: 31.6 µM,
Cc1cc(F)ccc1-c1[nH]nc2ncc(-c3ccnn3C)nc12,"inconclusive: 50.1 µM [inhibitor, single point]",
Cc1cc(C)c2c(-n3cccc3)nn(CC(=O)Nc3ccc(Cl)cc3)c2n1,"inconclusive: 39.8 µM [inhibitor, single point]",
COc1ccc(NC(=O)c2cc(-c3ccc[nH]3)n[nH]2)cc1F,,inactive: -13.8%
CN1CCN(c2cc(=O)c3ccnc(-c4cn[nH]c4)c3o2)CC1,active: 28.2 µM,
CCOC(=O)CC1(NC(=O)N2CCCCCC2c2ccc(C)s2)CCCCC1 (stereo not given),,inactive: 9.39%
COCCN1C(=O)c2n[nH]c(-c3ccco3)c2C1c1ccccc1OC (stereo not given),"inconclusive: 28.2 µM [inhibitor, single point]",
Cc1ccc(S(=O)(=O)N2CCCN(C)c3ccccc32)cc1Cl,"inconclusive: 17.8 µM [inhibitor, partial curve, poor fit]",
Cc1cnc2c(C(=O)N3CCCn4nc(C(C)O)cc4C3)cnn2c1 (stereo not given),"inconclusive: 20 µM [inhibitor, single point]",
Cc1ccc(NC(=O)c2c(NC(=O)Cc3ccccc3)sc3c2CCCC3)cc1,"inconclusive: 2.24 µM [inhibitor, full curve, poor fit]",
O=C(NCCc1cccc2cccnc12)NC1CCN(CC2CCCC2)CC1,,inactive: -3.21%

SMILES,Potency,"activity change, negative = inhibition"
CC(C)(Oc1nn(CC2CCOCC2)c2ccccc12)C(=O)NCCc1cccnc1,"inconclusive: 35.5 µM [inhibitor, partial curve]",
Cc1ccc2c(C(=O)N3CCN(C4CCCCC4)CC3)cc(NC(=O)C3CCC3)cc2n1,active: 25.1 µM,
COc1ccc2[nH]c(C(=O)N(CC3CC3)CC3CCCO3)c(C)c2c1 (stereo not given),"inconclusive: 28.2 µM [inhibitor, single point]",
NC(=O)c1ccccc1N=Cc1cccc(O)c1,"inconclusive: 31.6 µM [inhibitor, partial curve, poor fit]",
Cc1noc(C)c1[S+](=O)([O-])N1CCC2(CC1)CC(=O)c1ccccc1O2,active: 20 µM,
CCCn1c(=O)c(C(=O)N/N=C/c2ccc(F)cc2)c(O)c2ccccc21,"inconclusive: 17.8 µM [inhibitor, partial curve, poor fit]",
CN(C)C[C@@H]1CN(c2ncccn2)C[C@H]1NC(=O)c1ccncc1,active: 25.1 µM,
COc1cccc(C(=O)N(Cc2ccco2)c2ccccn2)c1,,inconclusive: -30.7% [inhibitor]
CC1CCN([C@@H]2[C@H](O)[C@H](CO)O[C@@H]2CNC(=O)Nc2cccc(Cl)c2)CC1,,inactive: -37.3% [at 86.2 µM]
CCCC(=O)N1Cc2ccccc2CC2(CCCN(Cc3ccc(O)cc3)C2)C1 (stereo not given),"inconclusive: 89.1 µM [inhibitor, single point]",
O=C(CN(c1cccc(Br)c1)S(=O)(=O)c1ccccc1)N/N=C/c1cc([N+](=O)[O-])ccc1O,"inconclusive: 10 µM [inhibitor, partial curve, poor fit]",
CC(C)NC(=O)c1cc2c(=O)n3ccccc3nc2s1,,inactive: -5420%
Cc1cc(CNC(=O)c2ccc(S(N)(=O)=O)cc2)c2[nH]c(C)c(C)c2c1,"inconclusive: 28.2 µM [inhibitor, single point]",
O=C(OCc1ncc(-c2ccc(Cl)cc2)o1)c1ccc(F)cc1,,inactive: -15.3%
CN(C)CCN(C)[C@@H]1[C@H](O)[C@H](CO)O[C@@H]1CNC1CCOCC1,"inconclusive: 17.8 µM [inhibitor, single point]",
O=C(Nc1cc2ccc(O)cc2oc1=O)c1ccccc1,"inconclusive: 7.94 µM [inhibitor, partial curve, poor fit]",
CCOC(=O)c1csc(NC(=O)C2CC(=O)N(c3n[nH]c4ccccc34)C2)n1 (stereo not given),,inactive: 9.23%
COc1ccc(CNC(=O)c2c[nH]c3ncccc23)cc1OC,,inactive: -23.2% [at 86.2 µM]
COc1ccc2cc(CNc3ccc(OC)c(OC)c3)c(=O)n(CC(=O)Nc3ccccc3F)c2c1,"inconclusive: 7.94 µM [inhibitor, partial curve, poor fit]",
COc1cccc(Nc2nccc3c(=O)cc(-c4ccccn4)oc23)c1,,inactive: -9.29% [at 86.2 µM]
CN(CC(O)COc1ccccc1CN1CCCOCC1)C1CCCCC1 (stereo not given),,inactive: 9.26%
CN(CCc1ccccn1)[C@H]1[C@@H]2OC[C@@H](O2)[C@@H](NC(=O)Nc2cccc(C(F)(F)F)c2)[C@@H]1O,"inconclusive: 17.8 µM [inhibitor, single point]",
